Screen size: about 45,000 compounds; about 200 (0.44%) were called active. About 7% were inconclusive and are not listed. Calls come from the whole dose curve; as a rule, active = well fitted activation curve with a large enough effect; inconclusive = small, poorly fitted or top-dose-only effect; inactive = no such curve, though single readings can be large or run the other way. Some of the results follow.

The nature of the experiment: qHTS of TDP-43 Inhibitors: NCGC Sytravon Library Screen. Note: 0% is about no effect; nearly all actives have a fitted effect of over 55% in size. Particulars: yeast TDP-43 toxicity rescue, BacTiter-Glo growth, 24 h; series mostly up to 46.1 µM; growth rescue (activation): at the top concentration. An outline of the steps:
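TDP-43-expressing yeast, pregrown in raffinose, seeded at OD600 0.02 in galactose medium with compound for 24 hr at 30 deg C. Growth read by BacTiter-Glo luminescence, so rescue of toxicity appears as activation.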
Background: qHTS replaces the single test concentration by a dilution series.
For `O=C(NCCc1ccccc1C(F)(F)F)C1CCC(=O)N(C2CC2)C1` (stereo not drawn), the “growth rescue (activation)” value was inactive: 0.0508%.

Take `CC(OC(=O)c1ccc([N+](=O)[O-])cc1)C(=O)NCC1CCCCC1` (stereo not drawn): the “growth rescue (activation)” value is inactive: 4.59%.

As to `Cc1ccc(-c2cc(C(=O)N/N=C/c3ccc(F)cc3)n[nH]2)o1`, the “growth rescue (activation)” value is inactive: 28.8%.

Take `Cc1ccccc1Nc1nc(N)nc(COC(=O)c2ccco2)n1`: the “growth rescue (activation)” value was inactive: 4.96%.

Regarding `CN(C)c1ccnc2sc3c(SCc4ccc(Cl)cc4)ncnc3c12`, the “growth rescue (activation)” value was inactive: -1.47%.

For the molecule `CCOC(=O)N1CCN(C(=O)c2ccc(Cl)nc2)CC1`, the “growth rescue (activation)” value was inactive: 2.99%.

Take `O=C(Nc1ccc(Cl)cc1)c1csc(COCCO)n1`: the “growth rescue (activation)” value is inactive: 8.97%.

For `Nc1cccc(CN2CCCC2)c1`, the “growth rescue (activation)” value is inactive: 1.84%.

On to `O=C(O)/C=C/C(=O)NCCC(c1ccccc1)c1ccccc1`, for which the “growth rescue (activation)” value is inactive: -1.62%.

On to `COc1cc(CCC(=O)OCC(=O)Nc2ccc3c(c2)OCO3)cc(OC)c1OC`, for which the “growth rescue (activation)” value is inactive: -4.96%.

For the molecule `O=C(CNC(=O)c1ccc2c(c1)OCO2)N/N=C/c1cc(Br)ccc1O`, the “growth rescue (activation)” value was inactive: 6.17%.

With `CN(C)c1ccc(C(=O)Nc2ccc(-c3nc4ccccc4o3)cc2)cc1`, the “growth rescue (activation)” value was inactive: 1.29%.

With `CC(=O)Nc1cc(-c2cccc(C(=O)NCCN(C)C)c2)cn2c(-c3ccc(C(C)=O)cc3)cnc12`, the “growth rescue (activation)” value is inactive: 13.6%.

On to `CCOC(=O)c1ccc(-c2ccc(/C=C(\C#N)C(=O)NCc3cccs3)o2)cc1`, for which the “growth rescue (activation)” value was inactive: -24.3%.

Turning to `CC(C)OP(=O)(c1ccc(N(C)C)cc1)C(O)c1ccc(Br)cc1` (stereo not drawn), the “growth rescue (activation)” value is inactive: 12.6%.

For `CCCC(=O)n1nc(-c2cccnc2)nc1NCc1ccccc1`, the “growth rescue (activation)” value is inactive: -0.959%.

On to `COc1ccc(N2CCN(C(=O)Nc3ccccc3Cl)CC2)cc1`, for which the “growth rescue (activation)” value was inactive: 23.5%.

`Nc1ncc(CCN2CCOCC2)c(-c2ccc(F)cc2)n1`: the “growth rescue (activation)” value is inactive: -14.4%.

`CC1(C(=O)N(CC(=O)NC2CCCC2)Cc2ccccc2)CC(=O)N=C2C=CC=CN21` (stereo not drawn): the “growth rescue (activation)” value was inactive: -7.81%.

With `Cc1ccc(C(=O)N2N=C(CC(C)C)CC2(O)C(F)(F)F)o1` (stereo not drawn), the “growth rescue (activation)” value was inactive: 8.09%.

For the molecule `O=C(CNC(=O)c1cncc(Br)c1)Nc1ccc(F)c(F)c1F`, the “growth rescue (activation)” value is inactive: 2.73%.

For `O=C(Nc1nc(-c2ccc3c(c2)Cc2ccccc2-3)cs1)c1ccccc1`, the “growth rescue (activation)” value was inactive: 21.7%.

In the case of `Cc1cccc(OCC(=O)N(Cc2ccc(N(C)C)cc2)Cc2ccco2)c1C`, the “growth rescue (activation)” value is inactive: 21.4%.

On to `CC(=O)N1N=C(c2ccco2)CC1c1cc2ccc(C)cc2nc1Cl` (stereo not drawn), for which the “growth rescue (activation)” value is inactive: 13.3%.

`O=C(c1cc(-c2cccc(O)c2)on1)N1CCCCCC1`: the “growth rescue (activation)” value was inactive: 35%.

In the case of `CCCN(CC1CC1)C(=O)COC(=O)c1ccc(C)cc1O`, the “growth rescue (activation)” value was inactive: 3.74%.

Turning to `CC(=O)c1cc(-c2ccccc2)n(CCC(=O)NC2CCCCC2)c1C`, the “growth rescue (activation)” value is inactive: 9.46%.

With `Cc1cccc(C(=O)NCCCNC(=O)c2ccco2)c1`, the “growth rescue (activation)” value was inactive: 7.33%.

`CC(CN1CCCCCC1)C(=O)NN` (stereo not drawn): the “growth rescue (activation)” value was inactive: -1.17%.

For the molecule `COc1ccc(-n2nc(C(=O)NCC(=O)N3CCN(c4ccccn4)CC3)c3ccccc3c2=O)c(OC)c1`, the “growth rescue (activation)” value was inactive: 25.9%.

For the molecule `CC12CN3CC(C)(CN(C1)C3c1cc3ccccc3[nH]1)C2=O` (stereo not drawn), the “growth rescue (activation)” value was inactive: -18.7%.

Consider `CC1(C)CC(NS(=O)(=O)c2ccc(C(C)(C)C)cc2)CC(C)(C)N1`, for which the “growth rescue (activation)” value is inactive: 9.24%.

For the molecule `Cc1ccc(Cl)cc1NC(=O)C(NS(=O)(=O)c1cccs1)c1ccccc1` (stereo not drawn), the “growth rescue (activation)” value was inactive: 20.9%.

Consider `O=C(N/N=C/c1cccnc1)c1cccc(Cl)c1`, for which the “growth rescue (activation)” value was inactive: -6.34%.

In the case of `COc1cc(N)c(Cl)cc1C(=O)OCC(=O)NCC1CCCO1` (stereo not drawn), the “growth rescue (activation)” value is inactive: -8.9%.

Take `Cc1cc(S(=O)(=O)NC2CCCC2)ccc1-n1cnnn1`: the “growth rescue (activation)” value is inactive: 1.93%.

`COc1ccc(-c2nnn(CC(=O)NCc3ccc4c(c3)OCO4)n2)cc1OC`: the “growth rescue (activation)” value was inactive: 9.47%.

In the case of `COc1ccc(NC(=O)CN(C)CC(=O)N2CCCCCC2)cc1`, the “growth rescue (activation)” value was inactive: 0.0326%.

Regarding `CN(C)C1N(C(=O)c2ccccc2)N=C2c3ccccc3S(=O)(=O)N21` (stereo not drawn), the “growth rescue (activation)” value was inactive: 14.8%.

For `CN1CCN(c2ncc(CN3C(=O)c4ccccc4C3=O)s2)CC1`, the “growth rescue (activation)” value was inactive: -4.03%.

Turning to `O=C(c1ccco1)N1N=C(c2ccc(Cl)cc2)CC1(O)C(F)(F)F` (stereo not drawn), the “growth rescue (activation)” value was inactive: 7.92%.

In the case of `Cc1ccc(C(=O)NCCCNC(=O)c2ccco2)cn1`, the “growth rescue (activation)” value is inactive: -2.56%.

Consider `O=C(COc1ccc(Cl)cc1Cl)NN=C1CCCCC1`, for which the “growth rescue (activation)” value was inactive: 12.9%.

Take `O=C1CN(C(=O)CNC(=O)c2ccc(Cl)cc2Cl)CCN1`: the “growth rescue (activation)” value was inactive: 6.05%.

In the case of `Cc1ccccc1NC(=O)Nc1nc(CN(C)C)cs1`, the “growth rescue (activation)” value is inactive: 4.49%.

For the molecule `COc1cccc(C=O)c1OC(=O)N1CCOCC1`, the “growth rescue (activation)” value is inactive: -6.63%.

As to `CCNC(=O)C1(C)CCCN1Cc1c(F)cccc1F` (stereo not drawn), the “growth rescue (activation)” value was inactive: 8.95%.

For the molecule `COC(=O)c1ccccc1NC(=O)N1CCN(c2ccccc2F)CC1`, the “growth rescue (activation)” value is inactive: 12.1%.

For the molecule `COc1c(Cl)cc(Cl)cc1C(=O)Nc1ccc(NC(C)=O)cc1`, the “growth rescue (activation)” value was inactive: 37.5%.

With `O=S(=O)(c1ccc(Cl)c2ccccc12)N1CCCC1`, the “growth rescue (activation)” value was inactive: 14.4%.

On to `COc1ccc(-c2nnn(CC(=O)N(CC(=O)NC3CCCC3)c3ccccc3F)n2)cc1OC`, for which the “growth rescue (activation)” value is inactive: -1.27%.

Turning to `CC(NC(=O)c1ccco1)C(=O)OCC(=O)c1ccc(Cl)s1` (stereo not drawn), the “growth rescue (activation)” value was inactive: -1.28%.

As to `COc1ccc(C)cc1NC(=S)N1CCN(S(C)(=O)=O)CC1`, the “growth rescue (activation)” value was inactive: 13.7%.

In the case of `CCC(C)N1CCN(S(=O)(=O)Cc2ccccc2)CC1` (stereo not drawn), the “growth rescue (activation)” value was inactive: -10%.

`COc1ccc(-c2[nH]ncc2CNC(C)CCn2cccn2)c(F)c1` (stereo not drawn): the “growth rescue (activation)” value is inactive: 4.8%.

`Clc1ccc(N2CCN(/N=C/c3ccncc3)CC2)cc1`: the “growth rescue (activation)” value is inactive: -2.25%.

`CCCn1nnnc1NCc1ccccc1F`: the “growth rescue (activation)” value was inactive: -8.71%.

In the case of `O=C(CN1CC[C@@]2(O)CCCC[C@H]2[C@@H]1c1ccc(F)cc1)NCc1ccco1`, the “growth rescue (activation)” value was inactive: -14.2%.

For `COc1cccc(C(=O)NCCNC(=O)c2ccco2)c1`, the “growth rescue (activation)” value was inactive: -8.22%.

In the case of `O=[N+]([O-])c1ccn(-c2nc(-c3ccccc3)cc(C(F)(F)F)n2)n1`, the “growth rescue (activation)” value was inactive: 22.5%.

In the case of `Cc1cccc(C(=O)Oc2ccccc2-c2nnco2)c1`, the “growth rescue (activation)” value is inactive: 4.69%.

Take `COc1ccccc1N1C(=O)C2C3C=CC(C3)C2(C)C1=O` (stereo not drawn): the “growth rescue (activation)” value is inactive: -4.37%.

As for `COCCN1C[C@@H](CO)O[C@@H](n2cnc3c(NCCCO)ncnc32)C1`, the “growth rescue (activation)” value was inactive: -2.94%.

Turning to `O=C(O)C1CCCCC1C(=O)NCCCN1CCOCC1` (stereo not drawn), the “growth rescue (activation)” value was inactive: 12.8%.

As to `COCCCNC(=O)c1cccc2c(-c3ccnn3C)coc12`, the “growth rescue (activation)” value is inactive: 20.1%.

As to `Cn1cc(Br)c(C(=O)NNC(=O)c2ccccc2)n1`, the “growth rescue (activation)” value was inactive: -15.8%.

For the molecule `Cc1cc(/C=C2/C(=O)NN(c3ccccc3)C2=O)c(C)n1-c1ccc(O)cc1`, the “growth rescue (activation)” value is inactive: -4.96%.

On to `Cc1ccccc1NC(=O)/C(C#N)=C/c1ccc(-c2ccc(Cl)c(C(=O)O)c2)o1`, for which the “growth rescue (activation)” value is inactive: -7.3%.

On to `COc1ccccc1C(=O)N=C1NC(=O)CC2C(=O)NCCN12` (stereo not drawn), for which the “growth rescue (activation)” value is inactive: -1.14%.

As to `CC1(C(=O)NS(=O)(=O)c2ccc(F)cc2F)CCN1C(=O)CC1CCCCC1` (stereo not drawn), the “growth rescue (activation)” value was inactive: 10.5%.

On to `COc1ccc2nc(CC(C)(C)CC(=O)O)c[n+]([O-])c2c1`, for which the “growth rescue (activation)” value was inactive: -14.3%.

For `Cc1ccc(C)c(NCc2n[nH]c(=S)n2-c2ccccc2)c1`, the “growth rescue (activation)” value is inactive: -4.51%.

Turning to `CCOc1ccc2nc(N3CCC(C(=O)NCCCN4CCOCC4)CC3)sc2c1`, the “growth rescue (activation)” value was inactive: 23.7%.

Source of the values: PubChem BioAssay AID1347073 (National Center for Advancing Translational Sciences (NCATS), 2019).
